Measured values: a collection of fitness landscapes (doi:10.1016/j.celrep.2020.107928)
The full ranking holds about 81,000 sequences; the median of “one-hybrid fitness for binding parS DNA” is about -0.17, and the highest 2% start at about 0.51. The list shows a part of the results.

B1: Caulobacter ParB omega fusion; a variant is named by its letters at X, in order, B8GW30 (parent)
chain: MESVVVGEPGMSEGRRGLGRGLSALLGEVDAAPAQAPGEQLGGSREAPIEILQRNPDQPRRTFREEDLEDLSNSIREKGVLQPILVRPSPDTAGEYQIVAGERAWRAAQRAGLKTVPIMVRELDDLAVLEIGIIENVQRADLNVLEEALSYKVLMEKFERTQENIAQTIGKSXSHVANXMRLLXLPDEVQSYLVSGELTAXHARAIAAAADPVALAKQIIEGGLSVRETEALARKAPNLSAGKSKGGRPPRVKDTDTQALESDLSSVLGLDVSIDHRGSTGTLTITYATLEQLDDLCNRLTRGI

Variants of: B1
Assay: one-hybrid fitness for binding parS DNA (scaled: cognate 1, non-cognate 0); higher = stronger binding
Settings: with parS DNA site
Procedure, shortened: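 Values were rescaled so that cognate is 1 and non-cognate is 0. Each is a fitness, the log change in a variant's read ratio to wild type from Illumina reads of plasmids before and after selection, with three replicate libraries pooled and variants under 10 reads dropped. Selection of the Caulobacter ParB libraries, four specificity codons randomised, used E. coli USO with a HIS3 reporter, site 19 bp from the promoter, on M9-minus-histidine with 0.1 mM IPTG and 5 mM 3-AT for 48 hours at 37°C.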

Point of comparison: RGTN, “one-hybrid fitness for binding parS DNA” value 0.25. Against it:
- AVYM — lower, ≤ 0.2
- TIVI — lower, ≤ 0.2
- QAPI — lower, ≤ 0.2
- SPPP — lower, ≤ 0.2
- CAVC — lower, ≤ 0.2
- TTDN — lower, ≤ 0.2
- QTRI — lower, ≤ 0.2
- AWIG — lower, ≤ 0.2
- QKMS — lower, ≤ 0.2
- VYHC — lower, ≤ 0.2
- WYNR — lower, ≤ 0.2
- SHCL — lower, ≤ 0.2
- TNNK — lower, ≤ 0.2
- HNLI — lower, ≤ 0.2
- ARET — lower, ≤ 0.2
- AEQT — lower, ≤ 0.2
- LTVA — lower, ≤ 0.2
- HCKG — lower, ≤ 0.2
- MPCR — lower, ≤ 0.2
- FAFT — lower, ≤ 0.2
- YFVN — lower, ≤ 0.2
- QCMN — lower, ≤ 0.2
- GYLT — lower, ≤ 0.2
- RGTD — lower, ≤ 0.2
- EDEC — lower, ≤ 0.2
- LITG — lower, ≤ 0.2
- LRGM — lower, ≤ 0.2
- SFQP — lower, ≤ 0.2
- MSNY — lower, ≤ 0.2
- QSYG — lower, ≤ 0.2
- SYII — lower, ≤ 0.2
- TAVD — lower, ≤ 0.2
- WQRR — lower, ≤ 0.2
- NARL — lower, ≤ 0.2
- KMYS — lower, ≤ 0.2
- EANW — lower, ≤ 0.2
- ITHY — lower, ≤ 0.2
- KTHE — lower, ≤ 0.2
- LAKQ — lower, ≤ 0.2
- RRPY — higher, 0.315
- YIAE — lower, ≤ 0.2
- AYTW — lower, ≤ 0.2
- FNLV — lower, ≤ 0.2
- HAHF — lower, ≤ 0.2
- HWKY — lower, ≤ 0.2
- LRDR — lower, ≤ 0.2
- GSHY — lower, ≤ 0.2
- LIAN — lower, ≤ 0.2
- RGWL — lower, ≤ 0.2
- LRNK — lower, ≤ 0.2
- RFVS — higher, 0.892
- IAAF — lower, ≤ 0.2
- SQYM — lower, ≤ 0.2
- RMRI — lower, ≤ 0.2
- AESY — lower, ≤ 0.2
- WDSC — lower, ≤ 0.2
- AMDT — lower, ≤ 0.2
- WCMR — lower, ≤ 0.2
- CSTC — lower, ≤ 0.2
- SFVC — lower, ≤ 0.2
- CILC — lower, ≤ 0.2
- KVKR — lower, ≤ 0.2
- WIYR — lower, ≤ 0.2
- VPMS — lower, ≤ 0.2
- LDSG — lower, ≤ 0.2
- HWDS — lower, ≤ 0.2
- SHGC — lower, ≤ 0.2
- WLTN — lower, ≤ 0.2
- DVDM — lower, ≤ 0.2
- YLNV — lower, ≤ 0.2
- RRSW — lower, ≤ 0.2
- YPRC — lower, ≤ 0.2
- RRDV — lower, ≤ 0.2
- DPMT — lower, ≤ 0.2
- HFAY — lower, ≤ 0.2
- YGMG — lower, ≤ 0.2
- DESY — lower, ≤ 0.2
- VCHG — lower, ≤ 0.2
- GNLR — lower, ≤ 0.2
- HIVC — lower, ≤ 0.2
- QQLK — lower, ≤ 0.2
- NIAV — lower, ≤ 0.2
- GGFC — lower, ≤ 0.2
- LRVY — lower, ≤ 0.2
- DPDY — lower, ≤ 0.2
- QIRE — lower, ≤ 0.2
- PQFV — lower, ≤ 0.2
- RGVG — higher, 0.502
- DRSY — lower, ≤ 0.2
- DPNG — lower, ≤ 0.2
- NDLT — lower, ≤ 0.2
- WSSW — lower, ≤ 0.2
- PRKC — lower, ≤ 0.2
- HIIL — lower, ≤ 0.2
- RQVI — lower, ≤ 0.2
- PQQQ — lower, ≤ 0.2
